Measured values reported in PubChem BioAssay AID493208 (National Center for Advancing Translational Sciences (NCATS), 2011).
Among all 44,000 compounds or so, about 340 (0.77%) were called active. Inconclusive results (about 5%) are left out. The call rests on the fitted dose curve; in most records, active means well fitted inhibition curve with a large enough effect; inconclusive means small, poorly fitted or top-dose-only effect; inactive means flat fitted curve, though single readings scatter. The list shows a part of the results.

Experiment: Acumen qHTS Assay for Inhibitors of the mTORC1 Signaling Pathway in MEF (Tsc2-/-, p53-/-) Cells: Sytravon;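 further: plate controls were DMSO for no effect and rapamycin for full effect; nearly all actives have a fitted effect of over 50% in size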
Settings: phospho-rpS6 immunofluorescence/PI, 24 h; series mostly up to 38.3 µM; activity change, negative = inhibition: at the top concentration
Method in brief: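 Tsc2-/-, p53-/- MEFs (empty-vector stable line) in DMEM + 10% FBS were treated with compounds 24 h at 37 degree Celsius, fixed, and immunostained for phospho-rpS6 (Alexa-488) with propidium iodide counterstain. Laser-scanning cytometry gave % positive cells, normalized against 7.5 nM rapamycin and DMSO.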

Activity change, negative = inhibition, inactive:
CCSc1ccccc1C(=O)N1CCN(c2nc3ccccc3s2)CC1 -5.21%
CCc1nn(CC(=O)NCCc2ccc(Cl)cc2)c(=O)c2cc3c(OC)cccc3n12 2.68%
COC(=O)c1ccc(NC(=O)c2cnn(-c3ccc(Cl)cc3)c2C2CCN(C(=O)OC(C)(C)C)CC2)cc1 1.41%
Cc1cc(C)c(NC(=O)c2cc(C)nc3c2c(C)nn3-c2cccc(F)c2)c(C)c1 -10.7%
Cc1cc2oc(C(=O)N(Cc3ccc(Cl)cc3)Cc3ccco3)c(C)c2cc1Cl 2.73%
CCc1ccc(-c2nn(-c3ccc(OC)cc3)c3c2cnc2ccc(OC)cc23)cc1 -13.5%
CCN(CC)C(=O)c1c(NC(=O)c2ccccc2F)sc2c1CCC(C(C)(C)C)C2 (configuration not stated) -0.633%
O=C(CSc1nccn1Cc1ccc2c(c1)OCO2)Nc1ccccc1F 0.265%
CCCn1c(=O)sc2cc(NC(=O)c3ccccc3Cl)ccc21 -3.81%
CCC1CCCCN1CCCNC(=O)c1cn(C)c2ccc(S(=O)(=O)N(C)C3CCCCC3)cc2c1=O (configuration not stated) 2.41%
COc1cccc(N2CCN(C(=O)c3cccn3-c3nnc(N4CCCCC4)s3)CC2)c1 6.99%
COc1cc(/C=C(/C#N)c2nc(-c3cc4ccccc4oc3=O)cs2)ccc1O -3.22%
Cc1c(Cl)cccc1NC(=O)Nc1c[nH]c(=O)[nH]c1=O 8.72%
Cc1cccc(NC(=O)CSc2nc3c([nH]c4ccccc43)c(=O)n2-c2cc(C)cc(C)c2)c1 -14.1%
CC1CCCCN1C(=O)CSc1nc(-c2ccccc2)no1 (configuration not stated) 3.71%
COc1cc(OC)cc(C(=O)Nc2nc(-c3nnn(-c4ccc(C)cc4)c3C)ns2)c1 -28%
CCOC(=O)C1=C(CN2CCC(C)CC2)NC(=O)NC1c1ccc(OC(C)C)cc1 (configuration not stated) 2.36%
CCOC(=O)c1ccccc1NC(=O)CSc1nc(=O)[nH]c2c1CCCC2 -0.148%
COc1ccc(Br)cc1CNC(=O)Cn1nc(C)n2c(cc3cc(F)ccc32)c1=O -0.466%
CCc1ccc2occ(CC(=O)N(Cc3ccccc3)C3CCS(=O)(=O)C3)c2c1 (configuration not stated) -5.12%
Cc1ccc(NC(=O)CN2C(=O)C(c3ccccc3)=NC23CCCCC3)cc1C 0.541%
CCS(=O)(=O)N1CCCc2cc(C(=O)Nc3cc([N+](=O)[O-])ccc3C)ccc21 -2.73%
CCc1ccc(S(=O)(=O)c2nnn3c2nc(N(C)Cc2ccccc2)c2cc(Cl)ccc23)cc1 -5.33%
COc1cccc(CNC(=O)Cn2c(=O)ccc3cc(S(=O)(=O)N4CCCC4)ccc32)c1 -4.1%
COc1ccc(Nc2nc3c(S(=O)(=O)c4ccccc4)nnn3c3ccc(Cl)cc23)cc1 -9.09%
CCN(CC)CCCNC(=O)c1cn(CC)c2ccc(S(=O)(=O)N3CCC(C)CC3)cc2c1=O -6.32%
O=C(O)c1ccc(NC(=O)c2ccc(Cl)c(S(=O)(=O)N3CCCCCC3)c2)cc1 2.43%
CN(C1CCCCC1)S(=O)(=O)c1ccc2c(c1)c(=O)c(C(=O)N1CCN(c3ccccc3)CC1)cn2C -1.09%
O=S(=O)(NCCS(=O)(=O)N1CCN(c2ccccc2)CC1)c1ccccc1 -1.45%
COC(=O)c1ccc(NC(=O)C(C)Sc2nc(=O)cc(N)n2CCc2ccccc2)cc1 (configuration not stated) 0.183%
Cc1nc2c3ccccc3nc(NNC(=O)CCC(=O)O)n2n1 -2.68%
Cc1ccc(NC(=O)CN2C(=O)CCSc3ccccc32)c(C)c1 -4.34%
COc1ccc(CCNC(=O)c2ccc3c(c2)nc(C)n3-c2ccc(Br)cc2)cc1OC -3.19%
Cc1ccc(Cn2c(CO)cnc2SCc2ccc(F)cc2)cc1 -11.9%
O=C(Nc1ccc(Cl)cc1Cl)c1cc(S(=O)(=O)NCc2ccc3c(c2)OCO3)ccc1F 0.878%
Cc1ccccc1NC(=O)c1cc2c([nH]c1=O)CC(C)(C)CC2=O 0.962%
Cc1nn(CCC(=O)Nc2ccc(Cl)cc2)c(C)c1S(=O)(=O)N1CCCCC1 -0.845%
COc1ccc(-c2cc(C(=O)Nc3cc(C(F)(F)F)ccc3Cl)no2)cc1 -7.87%
COc1ccccc1Cn1cc(C(=O)c2ccccc2)c(=O)c2cc(OC)c(OC)cc21 -2.83%
CCOc1ccc(C(=O)Nc2ccc(-c3cc4ccccc4oc3=O)cc2)cc1Br 6.64%
CN(C)c1ccc(CNC(=O)C2CCN(c3nnc(-n4cccc4)s3)CC2)cc1 -13.5%
CCc1cccc(NC(=O)C2CCN(S(=O)(=O)c3ccc(Br)s3)CC2)c1 -11.1%
COc1cc(OC)c(NC(=O)C2=C(C)C(=O)OC23CCN(C(C)=O)CC3)cc1Cl -8.46%
Cc1ccc(-n2ncc3c(=O)n(Cc4cccc(Cl)c4)cnc32)cc1C -0.446%
Cc1ccc(CSc2nc3cccnc3n2Cc2ccc(C(=O)NC3CC3)cc2)cc1 -8.01%
O=C(NCc1ccccc1)c1cccn1-c1nnc(N2CCCCC2)s1 0%
Cc1ccc(C)c(NC(=O)Nc2cc3c(cc2N2CCCCC2)n(C)c(=O)n3C)c1 -12.3%
